In publication PMC4336329 (PLoS ONE, 2015):
The whole screen tested about 310,000 compounds, of which about 14,000 (4.5%) showed an effect of 50% or more. The effect is printed as a negative number. This is one part of the list.

biological target: human ether-à-go-go-related gene (hERG) potassium channel (human, UniProt Q12809); assay: primary screen, population patch clamp on CHO cells stably expressing hERG
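Note: peak tail current of the secondary pulse compared with the same well before compound.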

Chain of human ether-à-go-go-related gene (hERG) potassium channel (Q12809 whole entry, looked up): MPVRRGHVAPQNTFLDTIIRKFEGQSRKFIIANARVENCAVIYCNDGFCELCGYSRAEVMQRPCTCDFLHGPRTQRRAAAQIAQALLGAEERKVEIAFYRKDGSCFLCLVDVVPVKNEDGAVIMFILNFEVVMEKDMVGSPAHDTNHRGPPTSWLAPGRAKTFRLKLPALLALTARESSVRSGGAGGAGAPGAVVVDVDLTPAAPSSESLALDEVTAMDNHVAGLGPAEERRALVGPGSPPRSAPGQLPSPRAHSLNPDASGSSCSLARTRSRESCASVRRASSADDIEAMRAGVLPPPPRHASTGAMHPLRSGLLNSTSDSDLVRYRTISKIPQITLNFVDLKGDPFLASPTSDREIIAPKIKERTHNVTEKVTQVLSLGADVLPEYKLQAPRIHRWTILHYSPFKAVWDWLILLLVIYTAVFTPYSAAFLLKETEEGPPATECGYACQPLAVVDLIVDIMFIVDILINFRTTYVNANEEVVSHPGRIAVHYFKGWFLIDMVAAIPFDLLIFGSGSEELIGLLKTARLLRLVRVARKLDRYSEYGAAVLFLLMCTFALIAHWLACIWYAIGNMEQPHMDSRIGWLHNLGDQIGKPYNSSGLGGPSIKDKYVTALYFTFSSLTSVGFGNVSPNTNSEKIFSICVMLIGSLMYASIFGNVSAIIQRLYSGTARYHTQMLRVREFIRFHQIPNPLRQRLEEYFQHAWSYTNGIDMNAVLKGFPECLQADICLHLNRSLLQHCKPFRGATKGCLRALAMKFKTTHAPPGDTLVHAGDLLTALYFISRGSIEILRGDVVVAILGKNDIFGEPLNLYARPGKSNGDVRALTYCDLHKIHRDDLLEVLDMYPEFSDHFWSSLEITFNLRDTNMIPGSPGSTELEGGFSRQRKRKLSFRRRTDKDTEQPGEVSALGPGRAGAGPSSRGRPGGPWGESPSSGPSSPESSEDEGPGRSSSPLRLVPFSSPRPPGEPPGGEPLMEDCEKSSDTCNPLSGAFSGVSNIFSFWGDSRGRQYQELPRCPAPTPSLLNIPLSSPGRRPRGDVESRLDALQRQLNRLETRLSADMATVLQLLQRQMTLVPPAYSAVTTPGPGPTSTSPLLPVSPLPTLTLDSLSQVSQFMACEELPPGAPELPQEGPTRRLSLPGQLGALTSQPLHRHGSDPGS

| SMILES | hERG current change (%, negative = inhibition) at 10uM [%] |
| --- | --- |
| Nn1c(SCc2nc3ccccc3[nH]2)nnc1-c1cccnc1 | -6.77 |
| C#CC(CCN1CCCCC1)(OC)c1ccccc1.Cl (stereo not drawn) | -28.6 |
| COC(=O)c1cc(NC(=O)c2ccc(-c3ccccc3)cc2)ccc1Cl | -2.01 |
| O=S(=O)(c1ccc2c(c1)oc1ccccc12)N1CCOCC1 | -5.51 |
| CN(C)c1nc(N)nc(CSc2nnnn2-c2ccc(F)cc2)n1 | 1.46 |
| O=C(CSC(=S)N1CCCC1)N1CCN(S(=O)(=O)c2cccc(F)c2)CC1 | -15.1 |
| Cc1nnc(N(CCC#N)CCC#N)s1 | 12.3 |
| Nc1nc(Cl)nc2ccc(Br)cc12 | 7.87 |
| Cc1nc2oc3c(=O)[nH]cnc3c2c2c1COC(C)(C)C2 | 3.19 |
| Cc1cc(NC(=O)CCC(=O)N(Cc2cccs2)C(C)(C)C(=O)NC2CCCCC2)no1 | 6.9 |
| O=C(NNC1=NCCN1Cc1ccccc1)c1cccc(C(F)(F)F)c1 | -11.9 |
| FC(F)(F)c1cccc(-c2nnc(-c3ccccc3)c(N3CCOCC3)n2)c1 | -19.7 |
| Cc1ccc(S(=O)(=O)n2nc(C)c(Br)c2C)c(C)c1C | 20.8 |
| CCc1ccc(-c2csc3[n+]2CCN3C(C)=O)cc1.[Br-] | -29.1 |
| CC1CCC(NC(=O)COc2ccccc2C(N)=O)CC1 (stereo not drawn) | 6.59 |
| CCOC(=O)Cn1cnc2c(cnn2-c2ccc(OC)cc2)c1=O | 17.1 |
| O=C(NC1CCCC1)C(c1ccncc1)N(C(=O)c1ccco1)c1ccccc1 (stereo not drawn) | -5.61 |
| CCOc1ccc(C2N(c3cc(Cl)ccc3OC)C(=O)C3CCCN32)cc1OC (stereo not drawn) | -0.709 |
| C=CCn1c(CNC(=O)c2ccccc2F)nnc1SCC(=O)N1CCOCC1 | -2.18 |
| CCN(CC)S(=O)(=O)c1cc(OCC(N)=O)c(C)cc1Cl | -12.4 |
| O=S(=O)(NC1CCCCCCC1)c1ccccc1 | 2.12 |
| COc1ccc(-c2nc3c([nH]2)c(=O)n(C)c(=O)n3C)c(OC)c1 | 10.1 |
| CC(NC(=O)Nc1ccc([N+](=O)[O-])cc1)C(c1cccs1)N1CCCC1 (stereo not drawn) | -60.1 |

| SMILES | hERG current change (%, negative = inhibition) at 10uM [%] |
| --- | --- |
| Cc1cccc(NC(=O)CSc2nccn2C)c1 | 7.61 |
| Cc1onc(-c2ccccc2)c1C(=O)Nc1cccc(S(=O)(=O)NC2=NCCC2)c1 | 16.6 |
| CCN(CC)c1ccc(/C=N/NC(=O)c2ccc([N+](=O)[O-])cc2)cc1 | 20.2 |
| CCOc1cccc(CN2CCN(CCc3ccccc3)C(CCO)C2)c1O (stereo not drawn) | -69.7 |
| Cc1csc(NC(=O)c2cncc(Br)c2)n1 | 6.64 |
| CC(C)[C@H](NC(=O)c1ccco1)C(=O)Nc1ccc(OC(F)F)cc1 | -18.3 |
| CC12CCC(=O)N1C(C(=O)Nc1nnc(SCc3ccc(F)cc3)s1)CS2 (stereo not drawn) | -15.2 |
| CN1CCN(C(=O)CN(c2cccc(Br)c2)S(=O)(=O)c2ccccc2)CC1 | -35.1 |
| O=C(Nc1ccc(Cl)cc1)NC1CCCc2ccccc21 (stereo not drawn) | -11.4 |
| O=C(NCCc1c[nH]c2ccccc12)c1c(Cl)nc2sccn12 | 15.4 |
| Cc1noc(NS(=O)(=O)c2ccc(NC(=O)CCn3c(=O)oc4ccccc43)cc2)c1C | -0.24 |
| CC(C)(C)C(=O)C1=C(O)C(=O)N(c2ccccc2)C1c1ccccc1 (stereo not drawn) | 16.2 |
| CCOc1ccc(NS(=O)(=O)c2ccc3[nH]cc(C(=O)NCC4CCCO4)c(=O)c3c2)cc1 (stereo not drawn) | 12.8 |
| Cc1cc(-c2csc(NC(=O)c3ccc(=O)n(C)n3)n2)c(C)n1CC1CCCO1 (stereo not drawn) | 17.2 |
| CC(=O)N1C(C)(C)CC(=NOC(=O)c2ccc(C)cc2)CC1(C)C | 13.6 |
| Cc1ccc(CN2CCN(c3ccccn3)CC2)s1.O=C(O)C(=O)O | -39.8 |
| CCN(CC)CCn1c(/N=C/c2cc(Br)ccc2O)nc2ccccc21 | -26.9 |
| COc1ccc(C2(C(=O)c3ccccc3)C(=O)c3ccccc3C2=O)cc1 | 16.4 |
| COCCCNCCCCSc1ccc(Cl)cc1 | -37.9 |
| Cc1nnc(SCC(=O)Nc2ccc(N3CCOCC3)cc2)o1 | 10.3 |
| CCC(C)(C)n1nnnc1C(c1ccc(C)cc1)N1CCN(C(=O)c2ccco2)CC1 (stereo not drawn) | -45.8 |
| CC(=O)c1ccc(Nc2nc(N3CCOCC3)nc(N3CCOCC3)n2)cc1 | -6.33 |
| O=C(COC(=O)/C=C/c1cccc(Cl)c1Cl)Nc1ccc2[nH]c(=O)[nH]c2c1 | 11.3 |

| SMILES | hERG current change (%, negative = inhibition) at 10uM [%] |
| --- | --- |
| C=CCn1c(C)cc(C(=O)CSc2nc3ccccc3c(=O)[nH]2)c1C | 9.49 |
| CCCCn1c(SCC(=O)OCC)nc2c1c(=O)[nH]c(=O)n2C | -41.9 |
| CC1CCN(c2ccc(NC(=O)Cc3ccccc3)cc2)CC1 | 17.8 |
| COc1cc(C2NC(=O)NC(O)(C(F)(F)F)C2C(C)=O)cc(OC)c1OC (stereo not drawn) | 4.75 |
| O=C(CC1C(=O)NCCN1Cc1c(F)cccc1Cl)NCCCn1ccnc1 (stereo not drawn) | 4.6 |
| COCCNS(=O)(=O)c1cc(F)ccc1OC | 14.2 |
| CCOP(=O)(OCC)C(NC(=O)Nc1ccc(Cl)cc1)C(N)=O (stereo not drawn) | 3.65 |
| COC(=O)c1ccccc1NC(=O)CN1CCN(Cc2ccccc2)CC1 | -74.5 |
| Cc1csc(NC(=O)CSc2nnc(-c3ccco3)n2C)n1 | -31.6 |
| Cn1cc(CN2CCC(n3nccc3NC(=O)Cc3ccccc3)CC2)cn1 | -41.8 |
| CCOC(=O)N=S(N)(=O)c1ccccc1 (stereo not drawn) | -8.48 |
| C=C(C)CNC(=S)N/N=C/c1ccc(N2CCOCC2)cc1 | 20.3 |
| CC1CCN(C(=O)COC(=O)c2cc(S(=O)(=O)N3CCOCC3)ccc2Cl)CC1 | -2.23 |
| Cc1cc(NC(=O)COc2ccc(C)c(C)c2)no1 | 18.2 |
| COc1ccc(NC(=O)c2sc3nc(C)nc(N4CCOCC4)c3c2C)c(OC)c1 | 9.38 |
| CCCCN(CCCC)CCNC(=O)CN1C(=O)COc2ccc(S(=O)(=O)N3CCOCC3)cc21 | -42.3 |
| COc1ccc2c(c1)oc(=O)c1ccccc12 | -8.58 |
| O=C(c1cccnc1)N1C2C=CC(C2)C1(C(F)(F)F)C(F)(F)F (stereo not drawn) | 14.6 |
| CCCn1c(=O)c2ccccc2n2c(SCCOc3ccc(C)cc3)nnc12 | -9.07 |
| CC1(C)C(=O)Nc2ccccc2N1C(=O)COC(=O)Cn1cnc2ccccc2c1=O | -5.08 |
| O=C(NC1(O)C(=O)c2ccccc2C1=O)c1ccccc1 | 3 |
| O=C(NC1CCCCC1)C(c1cccnc1)N(C(=O)c1csnn1)c1ccc(F)cc1 (stereo not drawn) | -3.2 |
| Cl.Nc1ccc(C(=O)N/N=C2/CN3CCC2CC3)cc1 | 12.7 |

| SMILES | hERG current change (%, negative = inhibition) at 10uM [%] |
| --- | --- |
| CSc1ccccc1NC(=O)c1ccc2c(c1)CCN2S(C)(=O)=O | -5.43 |
| CCN(CC)C(=O)c1ccc(NC(=O)c2sccc2-c2ccccc2)cc1 | 8.25 |
| COc1ccccc1N1CCN(C(=O)c2cc(=O)c3cc(C)cc(C)c3o2)CC1 | -27.3 |
| Cc1ccc2c(c1)NC(=O)c1cccnc1N2 | -1.31 |
| Cc1cc(Nc2ccccc2)n(CCOC(=O)COc2ccccc2)n1 | 7.87 |
| CC(C)(CNC(=O)CC1C(=O)NCCN1Cc1cccc(F)c1)N1CCOCC1 (stereo not drawn) | 11 |
| CSCC[C@H](NC(=O)[C@@H]1Cc2ccccc2CN1)C(=O)NCC1CCC(C(=O)O)CC1.Cl (stereo partly drawn) | -14.1 |
| Cc1nn(C)c(Oc2cccc(Cl)c2)c1C(=O)O | -6.18 |
| Cc1cc(C(=O)NC2=NCCS2)cs1 | -18 |
| O=C1CCC[C@@H]2Cc3[nH]c4c(Cl)ccc(Cl)c4c3[C@@H]3CCN1[C@H]23 | -3.18 |
| O=C(Nc1nc(-c2ccc3ccccc3c2)cs1)c1ccc(N2C(=O)CCC2=O)cc1 | 15.2 |
| CCC(=O)Nc1cccc(NC(=S)NC(=O)c2ccc(Cl)cc2)c1 | 16.3 |
| Cc1c(C(=O)N2CCCC2)sc(NC(=O)c2cccs2)c1C#N | -0.408 |
| CC[N+](CC)(CC)CCOc1cccc(OCC[N+](CC)(CC)CC)c1OCC[N+](CC)(CC)CC.[I-] | 25.2 |
| Cc1ccccc1C(=O)N1CCN(c2ccccn2)CC1 | 3.59 |
| O=C(NCC(=O)N1CCC2(CC1)NCCc1[nH]cnc12)c1cccc(Cl)c1 | 12.5 |
| Cc1ccc(Nc2nc(NCC3CCCO3)nc(N)c2[N+](=O)[O-])cc1C (stereo not drawn) | 14.4 |
| Cc1ccc(C2C3C(=O)N(c4ccc(C)cc4)C(=O)C3N3CCCN23)cc1 (stereo not drawn) | 8.13 |
| CC(=O)NC1C(=O)N=C(SCC(=O)Nc2ccc(C(F)(F)F)cc2Cl)NC1=O (stereo not drawn) | 27.8 |
| COCCNS(=O)(=O)c1ccccc1 | 9.4 |
| COc1ccccc1OCCSc1ncnc2nc[nH]c12 | 4.63 |
